# Measured values as given in PubChem BioAssay AID1460 (National Center for Advancing Translational Sciences (NCATS), 2008).
# In all, about 270,000 compounds went through this assay and about 5,800 (2.1%) were called active. The shares of active, inactive and inconclusive entries below differ from those in the screen. Calls come from the whole dose curve; as a rule, active = well fitted inhibition curve with a large enough effect; inconclusive = small, poorly fitted or top-dose-only effect; inactive = flat fitted curve, though single readings scatter. Potencies beside an inconclusive call are fits to weak or partial responses and may not hold up.
# Target: Microtubule-associated protein tau (Homo sapiens) (UniProt P10636)
# Chain of UniProt P10636 (P10636 whole entry, looked up): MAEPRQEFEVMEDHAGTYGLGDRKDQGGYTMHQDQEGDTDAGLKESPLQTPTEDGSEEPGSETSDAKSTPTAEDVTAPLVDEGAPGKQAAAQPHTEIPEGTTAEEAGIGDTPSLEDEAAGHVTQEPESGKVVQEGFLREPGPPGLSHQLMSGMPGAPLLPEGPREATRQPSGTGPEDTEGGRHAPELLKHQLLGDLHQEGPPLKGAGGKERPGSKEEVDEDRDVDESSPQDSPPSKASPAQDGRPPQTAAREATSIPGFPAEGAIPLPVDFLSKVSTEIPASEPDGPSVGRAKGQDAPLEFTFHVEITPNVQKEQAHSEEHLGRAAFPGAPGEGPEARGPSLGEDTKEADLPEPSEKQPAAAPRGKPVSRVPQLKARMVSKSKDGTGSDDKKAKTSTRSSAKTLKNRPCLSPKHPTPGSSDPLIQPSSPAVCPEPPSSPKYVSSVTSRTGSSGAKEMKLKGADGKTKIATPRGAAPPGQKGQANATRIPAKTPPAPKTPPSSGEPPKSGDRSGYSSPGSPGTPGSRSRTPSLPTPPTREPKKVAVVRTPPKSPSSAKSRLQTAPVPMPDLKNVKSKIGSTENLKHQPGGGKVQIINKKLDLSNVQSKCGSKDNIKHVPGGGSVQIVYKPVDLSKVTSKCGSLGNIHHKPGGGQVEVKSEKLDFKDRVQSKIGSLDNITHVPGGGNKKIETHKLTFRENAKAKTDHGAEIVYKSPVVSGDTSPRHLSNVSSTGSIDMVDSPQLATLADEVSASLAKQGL
# Assay: qHTS for Inhibitors of Tau Fibril Formation, Thioflavin T Binding; note: nearly all actives have a fitted effect of over 55% in size
# Conditions: recombinant tau K18 P301L, heparin-induced fibrillization, ThT fluorescence; series mostly up to 57.4 µM
# Outline: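 Using a mix of unlabeled (15 uM) and Alexa 594-labeled (0.24 uM) tau K18 P301L, heparin-triggered fibrillization over 6 hr at 37 C was scored by ThT fluorescence.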
# Potency is the fitted concentration of half-maximal effect; tags give direction and shape of the fitted curve.
row,Structure (SMILES),Potency
1,Cc1cc(C)c(C(CC(=O)c2cccs2)C(C#N)C#N)c(C)c1 (stereo unspecified),active: 25.1 µM
2,O=C(Nc1cnn(Cc2c(Cl)cccc2Cl)c1)c1ccc([N+](=O)[O-])cc1,inactive
3,CCOC(=O)Cc1ccc(NC(=O)Nc2ccccc2OCc2cc(=O)n3ccccc3n2)cc1,inactive
4,COc1ccc(-c2cc(-c3cccs3)nc(OC)c2C#N)cc1OC,"inconclusive: 14.1 µM [inhibitor, partial curve]"
5,Oc1ccc2oc3c(c2c1/C=N/n1cnnc1)CCCC3,inactive
6,CCOC(=O)Cn1c(=O)n(CC2CCCO2)c2nc(-c3ccccc3F)nc(C(N)=O)c21 (stereo unspecified),inactive
7,Cc1ccc(Cn2cc(C(=O)c3ccc(F)cc3)c(=O)c3cc4c(cc32)OCO4)cc1,"inconclusive: 39.8 µM [inhibitor, single point]"
8,COc1ccc(CCNC(=O)CN(c2cccc([N+](=O)[O-])c2)S(C)(=O)=O)cc1,inactive
9,Cc1cc2[nH]c3c(c[n+](C)c4ccccc34)c2cc1C,"inconclusive: 39.8 µM [activator, single point]"
10,C=CCn1c(O)c(CN2CCN(Cc3ccccc3)CC2)c(C)c(C#N)c1=O,active: 15.8 µM
11,O=C(O)CSc1nc2ccccc2[nH]1,inactive
12,CCC(=O)OCC(=O)[C@@]1(OC(=O)CC)[C@@H](C)C[C@@H]2[C@H]3CCC4=CC(=O)C=C[C@]4(C)[C@@]3(F)[C@@H](O)C[C@@]21C,"inconclusive: 35.5 µM [inhibitor, single point]"
13,COc1cccc(-c2nc(NCCc3c[nH]c4ccc(OC)cc34)c3ccccc3n2)c1,"inconclusive: 31.6 µM [inhibitor, partial curve]"
14,O=C(/C=C/c1ccc([N+](=O)[O-])cc1)NCCSCc1ccco1,"inconclusive: 14.1 µM [inhibitor, partial curve]"
15,COc1ccc(C(=O)N2CC3(CC(c4ccc(Cl)cc4)=NO3)C[C@H]2C(=O)NCC(N)=O)cc1 (stereo partly specified),inactive
16,CCN(CCCNC(=O)CSc1cc(=O)n(C)c2ccccc12)c1ccccc1,"inconclusive: 35.5 µM [inhibitor, partial curve]"
17,CCN(CC)c1nc2cc(C)ccc2cc1/C=C(\C#N)C(N)=O,"inconclusive: 15.8 µM [inhibitor, partial curve]"
18,O=C1C(Cl)=C(N2CCN(Cc3ccccc3)CC2)C(=O)N1Cc1ccccc1,"inconclusive: 3.98 µM [inhibitor, partial curve]"
19,CCCN1/C(=C2/SC(=S)N(CC)C2=O)C=Cc2ccccc21,"inconclusive: 2.51 µM [inhibitor, full curve]"
20,CCC(C)CCCCC(=O)NC(CCN)C(=O)NC(C(=O)NC(CCN)C(=O)NC1CCNC(=O)C(C(C)O)NC(=O)C(CCN)NC(=O)C(CCN)NC(=O)C(CC(C)C)NC(=O)C(Cc2ccccc2)NC(=O)C(CCN)NC1=O)C(C)O (stereo unspecified),inactive
21,CC1=C(C(=O)OCc2ccc3c(c2)OCO3)C(c2ccc(Cl)cc2)NC(=O)N1 (stereo unspecified),inactive
22,CCOCCCNC(=O)c1ccc2c(c1)NC(=O)C(CS(=O)(=O)Cc1ccc(F)cc1Cl)N2 (stereo unspecified),"inconclusive: 22.4 µM [inhibitor, single point]"
23,CCCCc1nn2c(=O)cc(COC(=O)c3cccc(NC(=O)COc4ccccc4)c3)nc2s1,"inconclusive: 0.631 µM [inhibitor, full curve]"
24,CCN(CC)c1ccc(NC(=O)COc2ccc(C)cc2)cc1,"inconclusive: 14.1 µM [inhibitor, partial curve]"

row,Structure (SMILES),Potency
1,O=C(NC1CCCCCC1)C1CCN(C(=O)N2CCOc3ccc(Cl)cc32)CC1,active: 22.4 µM
2,C=CCOC(=O)/C(=C\C=C\c1ccccc1)NC(=O)c1ccccc1,inactive
3,CC(=O)OC1CCC2(C)C3CCC4(C)C(CC5CCCCC54C(C)=O)C3CC(=O)[C@@]2(O)C1 (stereo partly specified),inactive
4,COc1ccc(N/N=C(\C#N)C(=N)N2CCOCC2)cc1,"inconclusive: 22.4 µM [inhibitor, partial curve]"
5,O=C(CN1CCCc2ccccc21)N/N=C/c1ccc(O)cc1O,"inconclusive: 17.8 µM [inhibitor, partial curve]"
6,COC(=O)c1ccc(C(NC(=O)OCc2ccccc2)/C(=C/[C@@H](C)C(=O)N(C)Cc2ccccc2)c2cccnc2)cc1 (stereo partly specified),inactive
7,O=C(O)c1ccc(Nc2nc3ccccc3c3nncn23)cc1,inactive
8,O=C(NNC1=C(C(=O)C(F)(F)F)CCC1)c1ccc(Br)cc1,"inconclusive: 22.4 µM [inhibitor, partial curve]"
9,CC(On1nnc2ccccc21)C(=O)N1CCN(Cc2ccccc2)CC1 (stereo unspecified),inactive
10,O=C(Nc1c(C(=O)c2ccccc2)oc2ccccc12)c1cc(-c2ccccc2O)n[nH]1,"inconclusive: 39.8 µM [inhibitor, single point]"
11,Cc1cc(C)c(NC(=O)Cn2c(=O)n(-c3cccc(C(F)(F)F)c3)c(=O)c3c(C)c(C)sc32)c(C)c1,inactive
12,CCn1c(SCC(=O)N/N=C(\C)c2ccncc2)nnc1-c1ccccc1,inactive
13,O=C(NCc1cccc(F)c1)C1CCN(c2nc3ccccc3nc2C(F)(F)F)CC1,inactive
14,CC(C)C(=O)NNc1nc2ccccc2s1,inactive
15,CC(=O)Nc1ccc(Nc2ncnc3c2cnn3-c2ccccc2)cc1,"inconclusive: 39.8 µM [inhibitor, single point]"
16,CC(=O)C1=C(C)NC(SCC(=O)c2ccc(Cl)cc2)=C(C#N)C1c1ccco1 (stereo unspecified),"inconclusive: 15.8 µM [inhibitor, partial curve]"
17,Cn1nc(-c2ccc(OCC(=O)Nc3cccc(C(F)(F)F)c3)cc2)c2ccccc2c1=O,inactive
18,Cc1[nH]ccc2c1[nH]c1cc(=O)ccc12,inactive
19,COc1ccc(NC(=S)N(CCN2CCCCC2)Cc2ccco2)cc1,inactive
20,Cc1cccc(C)c1OCc1cc(=O)n2c(-c3ccccc3)csc2n1,inactive
21,CCCOc1ccc(-c2nc(C#N)c(NCC3CCCO3)o2)cc1 (stereo unspecified),"inconclusive: 17.8 µM [inhibitor, partial curve]"
22,COc1cc(/C=C2\SC(=S)N(NS(=O)(=O)c3ccccc3)C2=O)ccc1O,active: 14.1 µM
23,COc1cccc(CNC(=O)CCl)c1,inactive
24,CCOC(=O)NC1(NC(C)C)Oc2ccccc2O1,"inconclusive: 35.5 µM [inhibitor, single point]"

row,Structure (SMILES),Potency
1,C/C(=N\Nc1ccc(C(=O)O)cc1)c1ccc(Br)cc1,"inconclusive: 12.6 µM [inhibitor, partial curve]"
2,C/C=C/c1ccc(OCCCCOc2ccc(OC)cc2)c(OC)c1,"inconclusive: 11.2 µM [inhibitor, partial curve]"
3,Cn1c2ccccc2c2cc(C(=O)NNS(=O)(=O)c3ccc(F)cc3)sc21,inactive
4,COc1ccc(-c2cc3nc(N)cc(=O)n3[nH]2)cc1,"inconclusive: 31.6 µM [activator, partial curve]"
5,COc1ccc(-c2noc(CCCOc3ccccc3)n2)cc1OC,"inconclusive: 15.8 µM [inhibitor, partial curve]"
6,CCOC(=O)C1CCCN(C(=O)CC(c2ccccc2)c2ccccc2)C1 (stereo unspecified),inactive
7,Cc1cccc(NC(=O)/C(C#N)=C\c2cc(C)n(-c3ccc(C(=O)O)cc3)c2C)c1,inactive
8,CCCOC(=O)c1ccc(NC(=O)Oc2ccccc2)cc1,"inconclusive: 35.5 µM [inhibitor, single point]"
9,Cn1cccc1C(=O)NC(=O)COC(=O)c1ccc(O)cc1,"inconclusive: 35.5 µM [inhibitor, single point]"
10,COc1ccc(-c2csc(NC(=O)CCS(=O)(=O)c3ccccc3)n2)c(OC)c1,"inconclusive: 10 µM [inhibitor, partial curve, poor fit]"
11,CCOC(=O)c1ccc(NC(=O)CSc2nc3ncc(Br)c(C)c3[nH]2)cc1,"inconclusive: 0.501 µM [inhibitor, full curve]"
12,COc1ccc(N2CCN(C(=O)C3=NNC(=O)CC3)CC2)cc1,"inconclusive: 35.5 µM [inhibitor, partial curve]"
13,O=C1CCCC(O)=C1N=Nc1ccc(Cl)c(Cl)c1,"inconclusive: 7.08 µM [inhibitor, partial curve]"
14,O=C(Nc1nc(-c2ccncc2)cs1)c1ccco1,"inconclusive: 17.8 µM [inhibitor, partial curve]"
15,O=P(CCCCCCCCCP(=O)(c1ccccc1)c1ccccc1)(c1ccccc1)c1ccccc1,"inconclusive: 20 µM [inhibitor, partial curve, poor fit]"
16,Cc1ccc2oc(-c3cccc(NC(=O)c4ccc(Br)o4)c3)nc2c1,"inconclusive: 0.501 µM [inhibitor, full curve, poor fit]"
17,O=C(/C=C/c1ccc(-c2ccc(F)cc2)o1)N1CCCC1,"inconclusive: 8.91 µM [inhibitor, partial curve]"
18,Cc1ccc(CNC(=O)c2sc3nc(C)cc(C)c3c2-n2cccc2)cc1,inactive
19,COc1ccccc1C(=O)Nc1cccc(SC)c1,"inconclusive: 39.8 µM [inhibitor, single point]"
20,Cc1ccccc1OCC(O)Cn1c(SC(C)C)nc2c1c(=O)[nH]c(=O)n2C (stereo unspecified),"inconclusive: 39.8 µM [inhibitor, single point]"
21,c1ccc(-c2nc3ccccn3c2NCc2ccc3c(c2)OCO3)cc1,"inconclusive: 20 µM [inhibitor, partial curve]"
22,CCOc1ccc(NC(=O)CCCc2nc(-c3cccc(OC)c3)no2)cc1,"inconclusive: 2 µM [inhibitor, full curve]"
23,Oc1cc(O)c2c(c1)O[C@H](c1ccc(O)c(O)c1)[C@@H](O)C2,inactive
